For three compounds, viability, T/C results are on record in PubChem BioAssay AID1963445 (Molecular Pharmacology Branch, DTP, NCI, 2024).

Certain results were filed several times, with different values. The other results are left out here. There may be further records. Results that share an entry repeat one measurement (runs, samples, wells, individuals or studies).

The experiment concerns MCF7 complex spheroid growth, % test/control. The experiment is described as follows: Anticancer human tumor MCF7 cell line growth inhibition [Asc].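 Also: spheroids exposed to compounds for 7 days; 100% = DMSO vehicle control wells.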 The settings on record: stronger effect = lower value. The protocol:
Multicellular complex tumor spheroid response to apoptosis pathway targeting inhibitors Alrizomadlin, Pelcitoclax, and Dasminapant in combination with a variety of drugs and investigational agents in selected tumor cell lines
The MDM2 inhibitor alrizomadlin, the Bcl-2/Bcl-xL inhibitor pelcitoclax, and the IAPs inhibitor dasminapant were evaluated both individually and in combination with standard of care and investigational anticancer small molecules within a complex spheroid model of solid tumors. . Complex spheroids include a stromal component modeled by human endothelial cells (HUVEC) and fibroblasts modeled by human mesenchymal stem cells (MSCs). The concentration ranges selected for each drug and investigational agent were based upon clinically achievable concentrations if the clinical Cmax of the agent was known.
Compounds. The drugs and investigational agents: alrizomadlin (APG-115; NSC831270), pelcitoclax (APG-1252; NSC835773), dasminapant (APG-1387;NSC834197), TAK-243 (NSC785004), copanlisib (NSC809693), olaparib (NSC753686), talazoparib (NSC767125), cobimetinib (NSC 768068), eltanexor (KPT-8602, NSC 794443), abemaciclib (NSC 768073), sotorasib (NSC818433), adagrasib (NSC 831453), MRTX-1133 (NSC 836407), Iadademestat (ORY1001, NSC 806812), and RMC-4630 (NSC839698), were obtained from the NCI Developmental Therapeutics Program Chemical Repository. The FDA-approved anticancer drug set is available from the Developmental Therapeutics Program at https://dtp.cancer.gov/organization/dscb/obtaining/available plates.htm. […] The stock solutions were prepared in dimethyl sulfoxide (DMSO, Sigma-Aldrich, St. Louis, MO, cat. D2650) at 800-fold the tested concentration and stored at -70 degrees C prior to their use. All drugs and investigational agents were tested over a range starting from a high concentration at or near the clinical Cmax and decreasing in half-log increments. If the clinical Cmax for an agent had not been determined, the highest concentration tested was 10 microM.
The patient-derived cancer (PDC) cell lines include five colon adenocarcinomas: 186277-243-T-J2-PDC, 616215-338-R-J1-PDC, 439559-082-T-J2-PDC, 463943-066-T-J2-PDC, and 519858-162-T-J1-PDC; three pancreatic carcinomas: 323965-272-R-J2-PDC, 521955-158-R6-J3-PDC, and 521955-158-R2-J5-PDC; two uterine sarcomas: 327498-152-R-J2-PDC and 993429-296-R-J1-PDC; two rhabdomyosarcomas: 755483-174-R-J1-PDC and 772245-204-R-J1-PDC; two soft tissue sarcomas: 126254-015-R-J1-PDC and 494315-158-R-J1-PDC; two malignant fibrous histiocytomas: 317291-083-R-J1-PDC and 596521-263-R-J1-PDC; two breast carcinomas: 171881-019-R-J1-PDC and 885512-296-R-J2-PDC; and one ovarian carcinoma: 6556581-035-R-J-PDC were obtained from the NCI PDMR, (https://pdmr.cancer.gov). The established cell lines HSSY-2 synovial sarcoma (RRID:CVCL 8719), SYO-1 synovial sarcoma (RRID:CVCL_7146), MPNST malignant peripheral neural sheath tumor were obtained from the Sloan Kettering Institute. The following established cell lines were purchased from the American Type Culture Collection (ATCC, Manassas, VA), Sor the received from the NCI repository:, PANC-1 pancreatic carcinoma (CRL-1469, RRID:CVCL_0480), OVCAR-5 ovarian carcinoma (RRID:CVCL_1628), OVCAR-8 ovarian carcinoma (RRID:CVCL_1629), , MCF-7 breast carcinoma (CRL-12584, RRID:CVCL_0031), MDA-MB-231 breast carcinoma (CRL-12532, RRID:CVCL_0062), NCI-H1876 small cell lung carcinoma (CRL-5902, RRID:CVCL_1503), NCI-H510A small cell lung carcinoma (HTB-184, RRID:CVCL_1565), NCI-H1417 (CRL-5869, RRID:CVCL_1469), and NCI-H196 small cell lung carcinoma (CRL-5823, RRID:CVCL_1509). Dr. Peter Houghton (Greehey Children's Cancer Research Institute, University of Texas Health Science Center, San Antonio, TX) provided Rh-18 rhabdomyosarcoma (RRID:CVCL_1659). Pooled donor human umbilical vein endothelial cells (HUVEC, Lonza, cat. CC-2519) and human mesenchymal stem cells (hMSC, Lonza, cat. PT-2501) were purchased from Lonza (Walkersville, MD).
Cell Culture. […]

Turning to `Cc1c(S(C)(=O)=O)c(-c2cc(F)cc(N3CCN(c4ccc(NS(=O)(=O)c5ccc(NC(CCN6CCC(C(=O)OCCCP(=O)(O)O)CC6)CSc6ccccc6)c(S(=O)(=O)C(F)(F)F)c5)cc4)CC3)c2)c(-c2ccc(Cl)cc2)n1C(C)C` (stereo unspecified), the viability, T/C (usually the result in the treated group divided by that in the control group, in per cent) reads like this: (compound alone 0.1 µM) 109, 90.5, 87.4, 86.6, 91.1, 104, 77.5%; (compound alone 0.316 µM) 104, 93.8, 81.6, 74.6, 86.2, 101, 92.4%; (compound alone 1 µM) 105, 90.9, 78.2, 88.6, 83.9, 88.8, 94.6%; (compound alone 3.16 µM) 91.9, 90.5, 83.4, 92.6, 103, 99.3, 76.3%.
As to `CNC(C)C(=O)NC1CN(S(=O)(=O)c2cccc(S(=O)(=O)N3CCC4CCC(C(=O)NC(c5ccccc5)c5ccccc5)N4C(=O)C(NC(=O)C(C)NC)C3)c2)CCC2CCC(C(=O)NC(c3ccccc3)c3ccccc3)N2C1=O` (stereo unspecified), where the note is “compound alone 0.00316 µM”, the viability, T/C is 91.6, 74.3, 14, 36.3, 39.6, 37, 39.7, 33.5, 18%.
Take `CCN1C(C(=O)NC23CCC(C(=O)O)(CC2)CC3)C(c2cccc(Cl)c2F)C2(C(=O)Nc3cc(Cl)ccc32)C12CCCCC2` (stereo unspecified): the viability, T/C (compound alone 0.03 µM) is given as 87.8, 91.2, 82.1, 66.8, 94, 98.6, 77.8, 79.4, 69.9%.
